Hit rate of the full screen: of about 310,000 compounds, about 14,000 (4.5%) showed an effect of 50% or more. The effect is printed as a negative number. Some of the results follow.
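Further: peak tail current of the secondary pulse compared with the same well before compound.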

Sequence of human ether-à-go-go-related gene (hERG) potassium channel (Q12809 whole entry, looked up): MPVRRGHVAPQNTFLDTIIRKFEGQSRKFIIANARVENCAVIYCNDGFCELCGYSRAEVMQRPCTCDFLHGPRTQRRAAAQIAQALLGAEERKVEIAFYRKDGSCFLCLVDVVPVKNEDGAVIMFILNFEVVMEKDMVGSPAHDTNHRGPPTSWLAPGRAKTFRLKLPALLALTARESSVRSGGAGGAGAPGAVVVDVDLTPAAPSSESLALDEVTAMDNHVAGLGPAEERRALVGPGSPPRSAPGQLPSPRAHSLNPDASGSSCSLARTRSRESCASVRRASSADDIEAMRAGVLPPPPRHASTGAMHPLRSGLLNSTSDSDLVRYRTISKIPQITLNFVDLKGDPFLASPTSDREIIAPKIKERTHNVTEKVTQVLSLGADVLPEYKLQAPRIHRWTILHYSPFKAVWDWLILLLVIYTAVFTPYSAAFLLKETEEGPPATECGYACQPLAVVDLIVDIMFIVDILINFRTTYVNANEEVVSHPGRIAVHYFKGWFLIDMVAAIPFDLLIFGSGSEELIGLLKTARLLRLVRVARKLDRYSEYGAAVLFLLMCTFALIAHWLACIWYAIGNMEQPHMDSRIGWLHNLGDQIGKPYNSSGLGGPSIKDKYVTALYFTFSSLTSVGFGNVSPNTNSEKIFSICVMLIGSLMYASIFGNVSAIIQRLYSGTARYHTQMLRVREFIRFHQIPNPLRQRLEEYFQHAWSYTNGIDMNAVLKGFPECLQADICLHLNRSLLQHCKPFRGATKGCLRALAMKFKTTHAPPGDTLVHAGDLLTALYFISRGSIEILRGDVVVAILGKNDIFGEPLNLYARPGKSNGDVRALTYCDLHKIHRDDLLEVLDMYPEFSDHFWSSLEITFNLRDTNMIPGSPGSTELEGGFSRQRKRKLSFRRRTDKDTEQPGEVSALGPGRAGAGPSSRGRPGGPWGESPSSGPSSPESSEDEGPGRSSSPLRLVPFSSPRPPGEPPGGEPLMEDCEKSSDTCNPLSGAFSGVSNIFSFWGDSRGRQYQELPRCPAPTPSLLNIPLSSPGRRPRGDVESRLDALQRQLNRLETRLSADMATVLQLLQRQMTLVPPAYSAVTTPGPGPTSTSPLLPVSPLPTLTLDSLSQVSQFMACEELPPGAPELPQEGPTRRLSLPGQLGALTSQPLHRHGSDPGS

This assay concerns the target human ether-à-go-go-related gene (hERG) potassium channel (human, UniProt Q12809). In words: primary screen, population patch clamp on CHO cells stably expressing hERG.
Take `CCOC(=O)N1CCN(c2c(NCc3ccccn3)c(=O)c2=O)CC1`: the “hERG current change (%, negative = inhibition) at 10uM” value is given as 11.1%. The value for `CCCn1c(C)cc(C=O)c1C` was 21.9%. On to `CC(C)Sc1nc(N2CCOCC2)c2c(c1C#N)CC(C)(C)SC2`, for which the “hERG current change (%, negative = inhibition) at 10uM” value was determined as 5.69%. With `O=C(CSc1nnc(CNC(=O)c2cccs2)o1)c1ccccc1` the figure was 10.6%; with `O=C1/C(=C/c2ccco2)Oc2c1ccc(O)c2CN1CCCCC1`, -10.5%; with `Cn1c(N)c(C(=O)CSc2nc(C3CC3)n(-c3ccccc3)n2)c(=O)n(C)c1=O`, -10.3%. The value for `CCOc1ccccc1NC(=O)Nc1ccncc1` was 14.9%; that for `O=C(CCN1C(=O)S/C(=C\C=C\c2ccccc2)C1=O)Nc1ccc(O)cc1` was -8.46%.

`CCOCCCn1c(=S)[nH]c2cc(C(=O)N3CCC(C(N)=O)(N4CCCCC4)CC3)ccc2c1=O`: the “hERG current change (%, negative = inhibition) at 10uM” value was -21.8%.

Turning to `Br.CC1(C(=O)CSc2ncn[nH]2)CCC(=O)O1` (stereo not drawn), the “hERG current change (%, negative = inhibition) at 10uM” value came out at 2.21%. On to `Cc1ccc(Cn2cc(C=O)c(-c3ccc(F)cc3)n2)cc1`, for which the “hERG current change (%, negative = inhibition) at 10uM” value was found to be 4.47%. With `O=C(c1cccc(C(F)(F)F)c1)C1CCCN(Cc2ncc[nH]2)C1` (stereo not drawn) the figure was 0.0209%.

In the case of `O=C(Nc1ccccc1C(=O)NCC1CCCO1)c1ccc(Cl)cc1` (stereo not drawn), the “hERG current change (%, negative = inhibition) at 10uM” value was -34.8%. For the compound `CCN(CC)c1ccc(C(=O)Nc2cccc(F)c2)cc1`, the “hERG current change (%, negative = inhibition) at 10uM” value is -18.2%. On to `Br.Cc1ccnc(Nc2nc(-c3ccc(Cl)cc3)cs2)c1`, for which the “hERG current change (%, negative = inhibition) at 10uM” value is reported as 2.65%. The value for `CCCCOc1ccccc1C(=O)NCCCC(=O)O` was 22.2%; that for `CCc1ccc(N(CC(=O)NCc2ccc3c(c2)OCO3)C(=O)c2csnn2)cc1` was -4%; that for `CCOc1ccccc1NC(=O)c1ccc(S(=O)(=O)N2CCOCC2)cc1` was -2.46%. Turning to `Cc1ccc(Nc2ccccc2)nn1`, the “hERG current change (%, negative = inhibition) at 10uM” value is given as 18.6%.

Take `CCOC(=O)c1ccc(NC(=O)Nc2ccc(Cl)cn2)cc1`: the “hERG current change (%, negative = inhibition) at 10uM” value is recorded as -7.73%. Regarding `CCOc1ccc2c(c1)C(c1ccc(C)cc1)=NNC(c1ccc(OC)cc1)=N2`, the “hERG current change (%, negative = inhibition) at 10uM” value is -21%. Turning to `O=C(/C=C/c1ccccc1)N1CCC(N2CCC(C(=O)N3CCOCC3)CC2)CC1`, the “hERG current change (%, negative = inhibition) at 10uM” value is listed as -23.4%. For `O=C(NCc1cc([N+](=O)[O-])ccc1O)c1cccnc1Sc1ccccc1Cl`, the “hERG current change (%, negative = inhibition) at 10uM” value is recorded as 27.4%. For the compound `Cc1cc(C)nc(SCc2nnc(SCC(=O)N3CCCc4ccccc43)n2C)n1`, the “hERG current change (%, negative = inhibition) at 10uM” value is reported as -10.3%. `CSc1cccc(-n2c(C)cc(C(N)=O)c2C)c1`: the “hERG current change (%, negative = inhibition) at 10uM” value was 10.6%. `COc1ccc(C(=O)OCC(=O)c2ccc(CNC(C)=O)s2)cc1`: the “hERG current change (%, negative = inhibition) at 10uM” value is -4.56%. With `O=C(Nc1ccc(F)cc1)c1nc2c(nnn2Cc2cccc3ccccc23)c(=O)[nH]1` the figure was 22.1%. With `CCN(CC)CCCNC(=O)/C(=C\c1cccn1C)NC(=O)c1cccs1` the figure was 11.4%; with `COc1ccc(-n2ncc3c(NCc4ccccn4)ncnc32)cc1`, -3.05%. In the case of `CCOc1cc(C2C3=C(CCCC3=O)NC3=C2C(=O)CCC3)ccc1OCCO`, the “hERG current change (%, negative = inhibition) at 10uM” value worked out at 11.8%. With `Oc1c(Br)cc(Br)cc1/C=N/N1CCN(Cc2ccccc2)CC1` the figure was 16%.

With `Cc1cc(-c2nnc(SCC(=O)Nc3c(C)cccc3C)n2N)n[nH]1`, the “hERG current change (%, negative = inhibition) at 10uM” value is on record as 20.8%. As to `FC(F)(F)COc1ccc(-c2nnc(SCc3ccccc3)o2)cn1`, the “hERG current change (%, negative = inhibition) at 10uM” value is reported as 8.82%. `Cc1ccccc1NC(=S)Nc1ccccn1`: the “hERG current change (%, negative = inhibition) at 10uM” value was 5.96%.

For `CCOC(=O)C1=C(C)Nc2nc3ccccc3n2C1c1ccncc1` (stereo not drawn), the “hERG current change (%, negative = inhibition) at 10uM” value is given as -2.44%. With `CCCc1nc2n[nH]c(N)c2c2c1COC(C)(C)C2`, the “hERG current change (%, negative = inhibition) at 10uM” value is -14.8%. For `COC(=O)C1=C(C)NC(C)=C(C(=O)OC)C1c1cc2cc(C)ccc2[nH]c1=O`, the “hERG current change (%, negative = inhibition) at 10uM” value is reported as 3.11%. For the compound `C=CCOc1c(Br)cc(CNc2ccc(NC(=O)C(C)C)cc2)cc1OCC`, the “hERG current change (%, negative = inhibition) at 10uM” value is listed as 21.5%. With `COc1ccc(C(=O)/C=C/c2ccccc2F)c(OC(=O)c2ccc([N+](=O)[O-])cc2)c1` the figure was 6.24%; with `COc1ccc(C(=O)NN(C)c2nc(-c3ccccc3)nnc2C(F)(F)F)cc1`, 7%. `Cc1cc(C)nc(-n2c(C)nc3cc(Cl)ccc3c2=O)c1`: the “hERG current change (%, negative = inhibition) at 10uM” value is 16.8%. The value for `CC1C(=O)Nc2ccc(S(=O)(=O)NCCc3ccc(Cl)cc3)cc2NC1=O` (stereo not drawn) was 5.99%; that for `CCCn1c(/C=C/c2ccco2)nc2ccccc21` was 0.213%.

As for `Cc1cccc(C(=O)Nc2sc(C(=O)N3CCCC3)c(C)c2C#N)c1`, the “hERG current change (%, negative = inhibition) at 10uM” value was found to be 5.76%. The value for `COc1ccc(Oc2coc3cc(OC(=O)/C=C/c4ccccc4)ccc3c2=O)cc1` was 1.72%; that for `N#Cc1ccccc1OCC(=O)N1CCc2ccccc2C1` was -2.7%; that for `COCCNC(=S)Nc1ccc(S(=O)(=O)Nc2cnc3ccccc3n2)cc1` was 13.5%.

In the case of `Cc1cc(C)nc(N/N=C/c2c(C)oc3ccccc23)n1`, the “hERG current change (%, negative = inhibition) at 10uM” value was 7.15%. With `COc1cc[n+](OC(=O)N2CCCCC2)c(C)c1.c1ccc([B-](c2ccccc2)(c2ccccc2)c2ccccc2)cc1` the figure was -5.95%. Take `CSc1nccc(N/N=C/c2ccccc2)n1`: the “hERG current change (%, negative = inhibition) at 10uM” value turned out to be 23.9%.

On to `COc1ccc(OC)c(/C=N/NC(=O)CNC(=O)c2cccc3ccccc23)c1`, for which the “hERG current change (%, negative = inhibition) at 10uM” value is recorded as 11.2%.

For the compound `O=C1C(=O)N(Cc2ccncc2)C(c2cccc(O)c2)/C1=C(\O)c1ccc2c(c1)OCCO2` (stereo not drawn), the “hERG current change (%, negative = inhibition) at 10uM” value worked out at 23.8%. The value for `O=C(NC1CC1)C1=C[C@@H](c2ccc(C(F)(F)F)cc2)C[C@@H](OCCCCO)O1` was -5.9%. Turning to `Cc1cc(C)nc(SCC(=O)OCC(=O)Nc2ccccc2)n1`, the “hERG current change (%, negative = inhibition) at 10uM” value came out at 0.8%. As to `CCCN1C(=O)C(NC(C)=O)c2cc(OC)ccc21` (stereo not drawn), the “hERG current change (%, negative = inhibition) at 10uM” value is 21.6%. Regarding `CC1CCN(CCCNC(=O)c2cc3c(s2)-c2ccccc2OC3)CC1`, the “hERG current change (%, negative = inhibition) at 10uM” value is -74.6%. With `Cc1ccc(CN2C(=O)c3ccccc3NC2c2ccccn2)cc1` (stereo not drawn) the figure was -14.4%.

Values taken from PMC4336329 (PLoS ONE, 2015).
